Data as given in patent US8946167B2, “Pharmaceutical compositions containing plasma protein” (priority 1997, dated 2015).
Read-outs that look alike come from different tables or passages of the source.

Target: human serum albumin (Homo sapiens, UniProt P02768)

## C[C@@H]1[C@H](O)[C@@H](C)/C=C/C=C/C=C/C=C/C=C/C=C/C=C/[C@H](O[C@@H]2O[C@H](C)[C@@H](O)[C@H](N)[C@@H]2O)C[C@@H]2O[C@](O)(C[C@@H](O)C[C@@H](O)[C@H](O)CC[C@@H](O)C[C@@H](O)CC(=O)O[C@H]1C)C[C@H](O)[C@H]2C(=O)O [amphotericin B]
Example II.35, 9.0 ml 0.8% HSA + 1.0 ml 4.0 mg/ml amphotericin B in dimethyl formamide, dialyzed against water at 4° C. for 20 hours
  binding (amphotericin B to HSA): 99.6%

## NC(=O)N1c2ccccc2C=Cc2ccccc21 [carbamazepin]
Example II.29, 4.0% HSA + 8.0 mg/ml carbamazepin in abs. ethanol 19:1, lyophilised, redissolved, UF
  binding of carbamazepin to HSA: 98%

## CC(=O)O[C@H]1C(=O)[C@@]2(C)[C@H]([C@H](OC(=O)c3ccccc3)[C@]3(O)C[C@H](OC(=O)[C@H](O)[C@@H](NC(=O)c4ccccc4)c4ccccc4)C(C)=C1C3(C)C)[C@]1(OC(C)=O)CO[C@@H]1C[C@@H]2O [paclitaxel]
Example II.1, 20% HSA + 1 mg/ml paclitaxel in absolute ethanol 4:1, lyophilised, redissolved, UF filtrate and retentate
  binding of paclitaxel to human serum albumin: 99%
Example II.2, 4.44% HSA + 2.0 mg/ml paclitaxel in absolute ethanol 9:1, lyophilised, redissolved, UF
  binding of paclitaxel to human serum albumin: 99%
